# Assay results as given in the supplement of paper PMC9588766.
# Where a name gives a salt, the structure may show the parent alone. In all, about 1,900 compounds were measured (“cell viability of compound + 1 nM pemigatinib relative to pemigatinib-only (DMSO) wells”: median about 0.95, lowest 2% from about 0.22 on). The list shows a part of the results.
# Test system: PDC-DUC18828
# Test: cell viability of compound + 1 nM pemigatinib relative to pemigatinib-only (DMSO) wells (fraction); PDC-DUC18828 is a patient-derived cholangiocarcinoma cell line; higher = less growth inhibition
# Conditions: first compound 1 µM; pemigatinib concentration 1 nM; 72 h
# Description: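 Selleck Bioactive library screen in the patient-derived FGFR2 fusion-positive ICC cell line PDC-DUC18828 (500 cells/well). Each compound was tested at 1 uM with 1 nM pemigatinib, in triplicate, for 72 h. Viability was read by CellTiter-Glo and normalised to plate DMSO controls. Value is the paper's averaged normalised viability.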
row,Structure (SMILES),cell viability
1,CCS(=O)(=O)N1CC(CC#N)(n2cc(-c3ncnc4[nH]ccc34)cn2)C1 + CCN1C(=O)N(c2c(F)c(OC)cc(OC)c2F)Cc2cnc3[nH]c(CN4CCOCC4)cc3c21 [pemigatinib],0.912
2,O=C(O)CCc1ccc(NCc2cccc(Oc3ccccc3)c2)cc1 + CCN1C(=O)N(c2c(F)c(OC)cc(OC)c2F)Cc2cnc3[nH]c(CN4CCOCC4)cc3c21 [pemigatinib],1.03
3,O=C(c1ccc(F)cc1)C1CCN(CCn2c(=O)[nH]c3ccccc3c2=O)CC1 [Ketanserin] + CCN1C(=O)N(c2c(F)c(OC)cc(OC)c2F)Cc2cnc3[nH]c(CN4CCOCC4)cc3c21 [pemigatinib],0.969
4,NC(=O)Nc1cc(-c2cccc(F)c2)sc1C(=O)N[C@H]1CCCNC1 + CCN1C(=O)N(c2c(F)c(OC)cc(OC)c2F)Cc2cnc3[nH]c(CN4CCOCC4)cc3c21 [pemigatinib],0.51
5,C[C@H]1[C@H](C)CC[C@]2(C(=O)O)CC[C@]3(C)C(=CC[C@@H]4[C@@]5(C)CC[C@H](O)C(C)(C)[C@@H]5CC[C@]43C)[C@H]12 [Ursolic Acid] + CCN1C(=O)N(c2c(F)c(OC)cc(OC)c2F)Cc2cnc3[nH]c(CN4CCOCC4)cc3c21 [pemigatinib],0.964
6,Nc1nccc(Oc2ccc(NC(=O)c3c[nH]cc(-c4ccc(F)cc4)c3=O)cc2F)c1Cl + CCN1C(=O)N(c2c(F)c(OC)cc(OC)c2F)Cc2cnc3[nH]c(CN4CCOCC4)cc3c21 [pemigatinib],0.989
7,C[C@H]1CO[C@@H]2Cn3cc(C(=O)NCc4ccc(F)cc4F)c(=O)c(O)c3C(=O)N12 + CCN1C(=O)N(c2c(F)c(OC)cc(OC)c2F)Cc2cnc3[nH]c(CN4CCOCC4)cc3c21 [pemigatinib],1.03
8,CC1(C)O[C@@H]2C[C@H]3[C@@H]4C[C@H](F)C5=CC(=O)C=C[C@]5(C)[C@@]4(F)[C@@H](O)C[C@]3(C)[C@]2(C(=O)CO)O1 [Fluocinolone Acetonide] + CCN1C(=O)N(c2c(F)c(OC)cc(OC)c2F)Cc2cnc3[nH]c(CN4CCOCC4)cc3c21 [pemigatinib],0.867
9,Cc1cc(C)nc(NS(=O)(=O)c2ccc(N)cc2)n1 [Sulfamethazine] + CCN1C(=O)N(c2c(F)c(OC)cc(OC)c2F)Cc2cnc3[nH]c(CN4CCOCC4)cc3c21 [pemigatinib],0.928
10,CC(C)(Oc1ccc(Cl)cc1)C(=O)OCCOC(=O)c1cccnc1 [Etofibrate] + CCN1C(=O)N(c2c(F)c(OC)cc(OC)c2F)Cc2cnc3[nH]c(CN4CCOCC4)cc3c21 [pemigatinib],0.905
11,CC[C@H](NC(=O)[C@H](C)NC)C(=O)N1C[C@@H](O)C[C@H]1Cc1c(-c2[nH]c3cc(F)ccc3c2C[C@@H]2C[C@H](O)CN2C(=O)[C@H](CC)NC(=O)[C@H](C)NC)[nH]c2cc(F)ccc12 [Birinapant] + CCN1C(=O)N(c2c(F)c(OC)cc(OC)c2F)Cc2cnc3[nH]c(CN4CCOCC4)cc3c21 [pemigatinib],0.847
12,CC(C)N(CC[C@H](c1ccccc1)c1cc(CO)ccc1O)C(C)C + CCN1C(=O)N(c2c(F)c(OC)cc(OC)c2F)Cc2cnc3[nH]c(CN4CCOCC4)cc3c21 [pemigatinib],1
13,CN1CCN2c3ncccc3Cc3ccccc3C2C1 (stereo unspecified) [Mirtazapine] + CCN1C(=O)N(c2c(F)c(OC)cc(OC)c2F)Cc2cnc3[nH]c(CN4CCOCC4)cc3c21 [pemigatinib],1.04
14,CC(C)[C@H](N)C(=O)OCCOCn1cnc2c(=O)nc(N)[nH]c21 [Valaciclovir HCl] + CCN1C(=O)N(c2c(F)c(OC)cc(OC)c2F)Cc2cnc3[nH]c(CN4CCOCC4)cc3c21 [pemigatinib],0.988
15,CC(C(O)c1ccc(O)cc1)N1CCC(Cc2ccccc2)CC1 (stereo unspecified) [Ifenprodil Tartrate] + CCN1C(=O)N(c2c(F)c(OC)cc(OC)c2F)Cc2cnc3[nH]c(CN4CCOCC4)cc3c21 [pemigatinib],1
16,C[C@@H]1C/C=C/C=C/C=C/C=C/[C@H](O[C@@H]2O[C@H](C)[C@@H](O)[C@H](N)[C@@H]2O)C[C@@H]2O[C@](O)(C[C@@H](O)C[C@H]3O[C@@H]3/C=C/C(=O)O1)C[C@H](O)[C@H]2C(=O)O [Natamycin] + CCN1C(=O)N(c2c(F)c(OC)cc(OC)c2F)Cc2cnc3[nH]c(CN4CCOCC4)cc3c21 [pemigatinib],0.975
17,CC1=NN(c2ccc(C)c(C)c2)C(=O)/C1=N\Nc1cccc(-c2cccc(C(=O)O)c2)c1O [Eltrombopag Olamine] + CCN1C(=O)N(c2c(F)c(OC)cc(OC)c2F)Cc2cnc3[nH]c(CN4CCOCC4)cc3c21 [pemigatinib],0.951
18,CC1=NN(c2ccc(C)c(C)c2)C(=O)/C1=N\Nc1cccc(-c2cccc(C(=O)O)c2)c1O [Eltrombopag] + CCN1C(=O)N(c2c(F)c(OC)cc(OC)c2F)Cc2cnc3[nH]c(CN4CCOCC4)cc3c21 [pemigatinib],0.921

row,Structure (SMILES),cell viability
1,CCn1c(=O)c2c(nc(/C=C/c3ccc(OC)c(OC)c3)n2C)n(CC)c1=O [Istradefylline] + CCN1C(=O)N(c2c(F)c(OC)cc(OC)c2F)Cc2cnc3[nH]c(CN4CCOCC4)cc3c21 [pemigatinib],0.909
2,COC(=O)N[C@@H](C)CNc1nccc(-c2cn(C(C)C)nc2-c2cc(Cl)cc(NS(C)(=O)=O)c2F)n1 + CCN1C(=O)N(c2c(F)c(OC)cc(OC)c2F)Cc2cnc3[nH]c(CN4CCOCC4)cc3c21 [pemigatinib],0.896
3,CC#C[C@]1(O)CC[C@H]2[C@@H]3CCC4=CC(=O)CCC4=C3[C@@H](c3ccc(N(C)C)cc3)C[C@@]21C [Mifepristone] + CCN1C(=O)N(c2c(F)c(OC)cc(OC)c2F)Cc2cnc3[nH]c(CN4CCOCC4)cc3c21 [pemigatinib],0.951
4,COc1ccc(Cl)cc1C(=O)NCCc1ccc(S(=O)(=O)NC(=O)NC2CCCCC2)cc1 [Glyburide] + CCN1C(=O)N(c2c(F)c(OC)cc(OC)c2F)Cc2cnc3[nH]c(CN4CCOCC4)cc3c21 [pemigatinib],0.988
5,Nc1nc(=O)n([C@@H]2CS[C@H](CO)O2)cc1F [Emtricitabine] + CCN1C(=O)N(c2c(F)c(OC)cc(OC)c2F)Cc2cnc3[nH]c(CN4CCOCC4)cc3c21 [pemigatinib],0.986
6,CC(O)c1cc(C(=O)N[C@@H](C)Cn2ccc(-c3ccc(C#N)c(Cl)c3)n2)n[nH]1 (stereo partly specified) + CCN1C(=O)N(c2c(F)c(OC)cc(OC)c2F)Cc2cnc3[nH]c(CN4CCOCC4)cc3c21 [pemigatinib],0.919
7,CCCCCCNC(=O)n1cc(F)c(=O)[nH]c1=O [Carmofur] + CCN1C(=O)N(c2c(F)c(OC)cc(OC)c2F)Cc2cnc3[nH]c(CN4CCOCC4)cc3c21 [pemigatinib],0.907
8,Cc1nc(C(=O)NCC(=O)O)c(O)c2ccc(Oc3ccccc3)cc12 + CCN1C(=O)N(c2c(F)c(OC)cc(OC)c2F)Cc2cnc3[nH]c(CN4CCOCC4)cc3c21 [pemigatinib],0.913
9,COC(=O)C1=CO[C@@H](O)[C@@H]2C(CO)=CC[C@H]12 [Genipin] + CCN1C(=O)N(c2c(F)c(OC)cc(OC)c2F)Cc2cnc3[nH]c(CN4CCOCC4)cc3c21 [pemigatinib],0.923
10,O=c1c(O)c(-c2ccc(O)cc2)oc2cc(O)cc(O)c12 [Kaempferol] + CCN1C(=O)N(c2c(F)c(OC)cc(OC)c2F)Cc2cnc3[nH]c(CN4CCOCC4)cc3c21 [pemigatinib],0.999
11,NC[C@@](O)(c1ccc(Cl)cc1)c1ccc(-c2cn[nH]c2)cc1 + CCN1C(=O)N(c2c(F)c(OC)cc(OC)c2F)Cc2cnc3[nH]c(CN4CCOCC4)cc3c21 [pemigatinib],0.923
12,COc1cc2nc(N3CCN(C(=O)C4COc5ccccc5O4)CC3)nc(N)c2cc1OC (stereo unspecified) [Doxazosin Mesylate] + CCN1C(=O)N(c2c(F)c(OC)cc(OC)c2F)Cc2cnc3[nH]c(CN4CCOCC4)cc3c21 [pemigatinib],0.894
13,N#C/C(=C(/N)Sc1ccc(N)cc1)c1ccccc1C(F)(F)F + CCN1C(=O)N(c2c(F)c(OC)cc(OC)c2F)Cc2cnc3[nH]c(CN4CCOCC4)cc3c21 [pemigatinib],0.99
14,COc1cc(OC)c(NC(=O)Nc2cc(C)on2)cc1Cl + CCN1C(=O)N(c2c(F)c(OC)cc(OC)c2F)Cc2cnc3[nH]c(CN4CCOCC4)cc3c21 [pemigatinib],1.01
15,CCCc1ccc(OCC(=O)N(Cc2nc(-c3cccnc3)no2)C(C)C)cc1 + CCN1C(=O)N(c2c(F)c(OC)cc(OC)c2F)Cc2cnc3[nH]c(CN4CCOCC4)cc3c21 [pemigatinib],1.01
16,CNC(=O)c1ccc(N2C(=S)N(c3ccc(C#N)c(C(F)(F)F)c3)C(=O)C2(C)C)cc1F [Enzalutamide (MDV3100)] + CCN1C(=O)N(c2c(F)c(OC)cc(OC)c2F)Cc2cnc3[nH]c(CN4CCOCC4)cc3c21 [pemigatinib],0.932
17,CCN(CC)CCOCCOC(=O)C1(c2ccccc2)CCCC1 [Pentoxyverine Citrate] + CCN1C(=O)N(c2c(F)c(OC)cc(OC)c2F)Cc2cnc3[nH]c(CN4CCOCC4)cc3c21 [pemigatinib],1.01
18,CC#CCn1c(N2CCC[C@@H](N)C2)nc2c1c(=O)n(Cc1nc(C)c3ccccc3n1)c(=O)n2C [Linagliptin] + CCN1C(=O)N(c2c(F)c(OC)cc(OC)c2F)Cc2cnc3[nH]c(CN4CCOCC4)cc3c21 [pemigatinib],0.834
